Measured values published in a collection of fitness landscapes (doi:10.1016/j.celrep.2020.107928).
In all, about 81,000 sequences were measured (“one-hybrid fitness for binding NBS DNA”: median about -0.1, highest 2% from about 0.36 on). Some of the results follow.

B1: Caulobacter ParB omega fusion; a variant is named by its letters at X, in order, B8GW30 (parent)
chain: MESVVVGEPGMSEGRRGLGRGLSALLGEVDAAPAQAPGEQLGGSREAPIEILQRNPDQPRRTFREEDLEDLSNSIREKGVLQPILVRPSPDTAGEYQIVAGERAWRAAQRAGLKTVPIMVRELDDLAVLEIGIIENVQRADLNVLEEALSYKVLMEKFERTQENIAQTIGKSXSHVANXMRLLXLPDEVQSYLVSGELTAXHARAIAAAADPVALAKQIIEGGLSVRETEALARKAPNLSAGKSKGGRPPRVKDTDTQALESDLSSVLGLDVSIDHRGSTGTLTITYATLEQLDDLCNRLTRGI

Variants of: B1
Test: one-hybrid fitness for binding NBS DNA (the Noc-binding site; scaled: cognate 1, non-cognate 0); higher = stronger binding
Conditions: with NBS DNA site
How it was run: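 Caulobacter ParB libraries with four specificity codons randomised were screened by bacterial one-hybrid selection in the E. coli USO strain, using a HIS3 reporter whose site lies 19 bp from the promoter. Selection ran for 48 hours at 37°C on M9 lacking histidine, with 0.1 mM IPTG and 5 mM 3-AT. Plasmids were Illumina-sequenced before and after selection, three replicate libraries were pooled, and variants with under 10 reads were dropped. Fitness is the log change in each variant's read ratio to wild type, rescaled against the cognate and non-cognate sites.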

Variant	one-hybrid fitness for binding NBS DNA
IPTA	≤ 0.2
HWSY	≤ 0.2
QGTN	≤ 0.2
QWDG	≤ 0.2
NPKV	≤ 0.2
GFTA	≤ 0.2
FLLV	≤ 0.2
CANR	≤ 0.2
YRLY	≤ 0.2
EELC	≤ 0.2
AMKR	≤ 0.2
SFTC	≤ 0.2
TREC	≤ 0.2
RTGW	≤ 0.2
HVVA	≤ 0.2
HCAV	≤ 0.2
PTMT	≤ 0.2
LSPN	≤ 0.2
SYPK	≤ 0.2
QCIF	≤ 0.2
RICQ	≤ 0.2
SPKW	≤ 0.2
RGWD	≤ 0.2
GQPI	≤ 0.2

Variant	one-hybrid fitness for binding NBS DNA
WEDR	≤ 0.2
LLKQ	≤ 0.2
YYKV	≤ 0.2
NVDT	≤ 0.2
PGEY	≤ 0.2
PEDV	≤ 0.2
QRSR	0.997
QQKS	0.714
FYIS	≤ 0.2
GDGC	≤ 0.2
TDDL	≤ 0.2
VLET	≤ 0.2
FPQT	≤ 0.2
PHNC	≤ 0.2
VDWG	≤ 0.2
TGKG	≤ 0.2
RVWI	≤ 0.2
ILPS	≤ 0.2
CHSW	≤ 0.2
GMMG	≤ 0.2
VRCA	≤ 0.2
QSFQ	≤ 0.2
DRRL	≤ 0.2
DNPI	≤ 0.2

Variant	one-hybrid fitness for binding NBS DNA
LPIR	≤ 0.2
KARQ	≤ 0.2
WDKR	≤ 0.2
GTLV	≤ 0.2
NPHD	≤ 0.2
VRLH	≤ 0.2
RLAE	≤ 0.2
MSRV	≤ 0.2
NARF	≤ 0.2
LGHS	≤ 0.2
DPAW	≤ 0.2
STQV	≤ 0.2
PHDF	≤ 0.2
RMFK	≤ 0.2
AFVV	≤ 0.2
THNS	≤ 0.2
PNVY	≤ 0.2
RCGD	≤ 0.2
RLAT	0.423
NTCD	≤ 0.2
ALDH	≤ 0.2
RKYN	≤ 0.2
WREE	≤ 0.2
RSHH	≤ 0.2

Variant	one-hybrid fitness for binding NBS DNA
QWSF	≤ 0.2
MVKG	≤ 0.2
FAVC	≤ 0.2
DSKM	≤ 0.2
AQAE	≤ 0.2
MCDR	≤ 0.2
DSVY	≤ 0.2
HARQ	≤ 0.2
ACPM	≤ 0.2
SHKY	≤ 0.2
SRLC	≤ 0.2
NHAL	≤ 0.2
PGFP	≤ 0.2
RHRV	≤ 0.2
VTTG	≤ 0.2
DQHR	≤ 0.2
RNHT	≤ 0.2
PKYE	≤ 0.2
PGPI	≤ 0.2
TGTQ	≤ 0.2
PDVM	≤ 0.2
VTIY	≤ 0.2
NMNS	≤ 0.2
KLYP	≤ 0.2

Variant	one-hybrid fitness for binding NBS DNA
NGYR	≤ 0.2
WQQI	≤ 0.2
GPEI	≤ 0.2
QMLI	≤ 0.2
ALQG	≤ 0.2
NRKG	≤ 0.2
SPPR	≤ 0.2
RTNM	≤ 0.2
CRRR	0.373
IDNE	≤ 0.2
FSTM	≤ 0.2
NLKN	≤ 0.2
ACYC	≤ 0.2
LGVS	≤ 0.2
MFSS	≤ 0.2
AKDT	≤ 0.2
VMPH	≤ 0.2
HLGH	≤ 0.2
YKCC	≤ 0.2
LSTD	≤ 0.2
TEEN	≤ 0.2
GRQL	≤ 0.2
FRHR	≤ 0.2
RQNT	0.53

Variant	one-hybrid fitness for binding NBS DNA
KTYF	≤ 0.2
DPRR	≤ 0.2
TSGM	≤ 0.2
RRTG	0.331
TMRR	0.276
NRHE	≤ 0.2
APAR	≤ 0.2
PRVL	≤ 0.2
SPLS	≤ 0.2
DEFR	≤ 0.2
CGFC	≤ 0.2
SIKG	≤ 0.2
LFDG	≤ 0.2
LHRS	≤ 0.2
PNFV	≤ 0.2
HYHA	≤ 0.2
HGGC	≤ 0.2
CGRT	≤ 0.2
QRAE	0.332
STES	≤ 0.2
MRPI	≤ 0.2
KQAC	≤ 0.2
RGEM	≤ 0.2
NDTF	≤ 0.2

Variant	one-hybrid fitness for binding NBS DNA
YPTR	≤ 0.2
LDPG	≤ 0.2
DLSV	≤ 0.2
ASPP	≤ 0.2
MTRS	≤ 0.2
AEWS	≤ 0.2
LNNL	≤ 0.2
HTDF	≤ 0.2
VEDL	≤ 0.2
RAVC	≤ 0.2
IEAS	≤ 0.2
PPAW	≤ 0.2
KPQT	≤ 0.2
HWDR	≤ 0.2
PLGI	≤ 0.2
KGGR	≤ 0.2
ICMF	≤ 0.2
WNMR	≤ 0.2
GVRM	≤ 0.2
MGTC	≤ 0.2
STTH	≤ 0.2
NPLD	≤ 0.2
CHMW	≤ 0.2
AHKS	≤ 0.2

Variant	one-hybrid fitness for binding NBS DNA
LRQG	≤ 0.2
ATRQ	≤ 0.2
ESTF	≤ 0.2
RVAR	0.396
LTHG	≤ 0.2
NGQV	≤ 0.2
MECR	≤ 0.2
SETA	≤ 0.2
SYVC	≤ 0.2
AHKM	≤ 0.2
QHNC	≤ 0.2
MTKH	≤ 0.2
LLLY	≤ 0.2
ALMS	≤ 0.2
TGFC	≤ 0.2
QWAY	≤ 0.2
DILR	≤ 0.2
ASTD	≤ 0.2
ISEG	≤ 0.2
VHVC	≤ 0.2
VRPV	≤ 0.2
IGAS	≤ 0.2
IGRI	≤ 0.2
NWWC	≤ 0.2

Variant	one-hybrid fitness for binding NBS DNA
MSQM	≤ 0.2
CLSW	≤ 0.2
KMLR	≤ 0.2
IDIS	≤ 0.2
QYRE	0.216
MKKR	0.213
LAGY	≤ 0.2
QCPW	≤ 0.2
VRRQ	≤ 0.2
DYFC	≤ 0.2
RALA	≤ 0.2
QSEL	≤ 0.2
QALS	0.226
CTCT	≤ 0.2
HNMA	≤ 0.2
TWLI	≤ 0.2
QVQV	≤ 0.2
IMTC	≤ 0.2
NPPC	≤ 0.2
EYPV	≤ 0.2
KWRR	≤ 0.2
WGTG	≤ 0.2
DGGN	≤ 0.2
PANG	≤ 0.2

Variant	one-hybrid fitness for binding NBS DNA
PGKG	≤ 0.2
QPSQ	≤ 0.2
PTEP	≤ 0.2
DMLY	≤ 0.2
GFFG	≤ 0.2
THWI	≤ 0.2
HNVN	≤ 0.2
ELSE	≤ 0.2
MLSI	≤ 0.2
ATAQ	≤ 0.2
ARQN	≤ 0.2
GTDL	≤ 0.2
QDPR	≤ 0.2
IQNT	≤ 0.2
MSPI	≤ 0.2
YKAR	≤ 0.2
PLRL	≤ 0.2
FVYT	≤ 0.2
CACF	≤ 0.2
MDKS	≤ 0.2
VYAR	≤ 0.2
DPPR	≤ 0.2
GMGR	≤ 0.2
QQNR	0.786

Variant	one-hybrid fitness for binding NBS DNA
PKPE	≤ 0.2
LAST	≤ 0.2
LQNS	≤ 0.2
LEFM	≤ 0.2
IWKL	≤ 0.2
RQSW	≤ 0.2
CMQC	≤ 0.2
QRKA	0.692
QSHL	≤ 0.2
KYRW	≤ 0.2
ILAR	≤ 0.2
RWLI	≤ 0.2
RHRT	0.583
FTTR	≤ 0.2
PTRI	≤ 0.2
SIET	≤ 0.2
SHWT	≤ 0.2
AVKG	≤ 0.2
QKSW	≤ 0.2
GSPN	≤ 0.2
QQRA	0.606
ELHS	≤ 0.2
TCQA	≤ 0.2
RHFH	≤ 0.2

Variant	one-hybrid fitness for binding NBS DNA
KYKV	≤ 0.2
TTRK	≤ 0.2
QKAE	≤ 0.2
CRFS	≤ 0.2
HRTN	≤ 0.2
MQRR	0.206
KLWM	≤ 0.2
RRAQ	0.223
SSTW	≤ 0.2
ALVL	≤ 0.2
RAGN	≤ 0.2
RREA	0.44
ERAG	≤ 0.2
PRLL	≤ 0.2
PFAT	≤ 0.2
WSEM	≤ 0.2
CYNT	≤ 0.2
FCGR	≤ 0.2
RIWI	≤ 0.2
WAPG	≤ 0.2
SRYK	≤ 0.2
SHHY	≤ 0.2
RSRF	≤ 0.2
PGYW	≤ 0.2

Variant	one-hybrid fitness for binding NBS DNA
QDNN	≤ 0.2
DAPA	≤ 0.2
QFAV	≤ 0.2
FNLC	≤ 0.2
FVAS	≤ 0.2
DILS	≤ 0.2
AIQY	≤ 0.2
VRKE	≤ 0.2
FTKK	≤ 0.2
QGDF	≤ 0.2
RQSL	≤ 0.2
PPTV	≤ 0.2
VTTT	≤ 0.2
LHAG	≤ 0.2
YNNE	≤ 0.2
SRRL	≤ 0.2
PSRC	≤ 0.2
KAAN	≤ 0.2
